From PubChem BioAssay AID493208 (National Center for Advancing Translational Sciences (NCATS), 2011)
Out of some 44,000 compounds screened, about 340 (0.77%) were called active. About 5% were inconclusive and are not listed. Calls come from the whole dose curve; as a rule, active = well fitted inhibition curve with a large enough effect; inconclusive = small, poorly fitted or top-dose-only effect; inactive = flat fitted curve, though single readings scatter. The list shows a part of the results.

Assay: Acumen qHTS Assay for Inhibitors of the mTORC1 Signaling Pathway in MEF (Tsc2-/-, p53-/-) Cells: Sytravon;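 note: plate controls were DMSO for no effect and rapamycin for full effect; nearly all actives have a fitted effect of over 50% in size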
Conditions: phospho-rpS6 immunofluorescence/PI, 24 h; series mostly up to 38.3 µM; activity change, negative = inhibition: at the top concentration
Summary of the method: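 Tsc2-/-, p53-/- mouse embryonic fibroblasts (empty-vector line) exposed to compound 24 hrs at 37 C, fixed, immunostained for phospho-rpS6 and counterstained with propidium iodide. Acumen laser scanning gives % positive cells from Alexa 488/PI ratio, thresholded using 7.5 nM rapamycin; PI count gives viability.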

| SMILES | activity change, negative = inhibition |
| --- | --- |
| CCOc1ccc(CNC(=O)CCCn2c(=O)c3cccn3c3ccccc32)cc1 | inactive: -14.8% |
| COc1ccc(CCNC(=O)C(=O)NCC(c2cccs2)S(=O)(=O)c2cccs2)cc1 (stereo unspecified) | inactive: 0.0636% |
| COc1ccccc1CNc1ncnc2onc(-c3ccc(F)cc3)c12 | inactive: -1.03% |
| COc1ccc(C(=O)n2nc(-c3cccnc3)nc2NCc2ccccc2)cc1OC | inactive: 3.3% |
| CCOc1ccccc1Nc1nc2ccccc2nc1NS(=O)(=O)c1ccc(Cl)cc1 | inactive: 3.81% |
| CC(=O)N1CCCc2cc(S(=O)(=O)N3CCC(C(=O)Nc4c(C)cccc4C)CC3)ccc21 | inactive: 0.816% |
| CCc1nnc(SCc2cccc(Cl)c2)c2cc3sccc3n12 | inactive: 4.38% |
| COc1ccc(-c2cc(OC(=O)c3ccccc3Cl)c3c(C)oc(C)c3c(=O)c2)cc1OC | inactive: -3.96% |
| Cc1cc(C)c(NC(=O)CSc2nc3nccnc3c(=O)n2CCc2c[nH]c3ccccc23)c(C)c1 | inactive: 0.278% |
| CCOc1cccc(C(=O)Nc2ccc3oc(-c4ccncc4)nc3c2)c1 | inactive: -2.72% |
| Cc1cc(F)ccc1NC(=O)Cn1nc(N2CCN(c3ccccc3)CC2)ccc1=O | inactive: 7.85% |
| COc1ccc2c(CNC3CCCCCC3)c(C(=O)O)n(Cc3ccc(C)cc3)c2c1 | inactive: -0.348% |
| Cc1ccc(-c2noc(-c3cccnc3NCc3ccco3)n2)cc1 | inactive: -11.5% |
| COc1ccc(CNC(=O)CN2C(=O)COc3ccc(S(=O)(=O)N4CCCCC4)cc32)cc1 | inactive: -7.48% |
| Cc1ccc(Cn2c(C)c3cnn(CC(=O)O)c(=O)c3c2C)cc1 | inactive: 0.649% |
| O=C(Nc1cccc(C(=O)OCc2cc(=O)n3c4c(sc3n2)CCCC4)c1)c1ccc(Cl)cc1 | inactive: 0% |
| COc1ccc(NC(=O)Cn2c(=O)n(CCCCCC(=O)NCc3ccc4c(c3)OCO4)c(=O)c3sccc32)cc1Cl | inactive: 0.962% |
| O=C(NCc1ccccc1)c1cnc2sc(N3CCCC3)nn2c1=O | inactive: 5.02% |
| CCN(CC)C(=O)c1sc2c(c1C)c(=O)n(Cc1ccccc1)c(=O)n2Cc1cc(C)ccc1C | inactive: -6.67% |
| COc1ccc(C)cc1NC(=O)c1sc2nc(-c3ccc(F)cc3)cn2c1C | inactive: -11.9% |
| CCOc1cc(S(=O)(=O)NCCc2c(C)[nH]c3ccc(C)cc23)ccc1F | inactive: 1.98% |

| SMILES | activity change, negative = inhibition |
| --- | --- |
| COc1ccc2c(c1)c(CC(=O)Nc1cc(C)cc(C)c1)c(C)n2C(=O)c1ccc(Cl)cc1 | inactive: -0.149% |
| O=C(CCCn1ncn2c(cc3occc32)c1=O)NCc1ccccc1F | inactive: -7.3% |
| Cc1cc(C)c2oc(C(=O)Nc3ccc(S(=O)(=O)Nc4ncccn4)cc3)cc(=O)c2c1 | inactive: 5.53% |
| Cc1cc2c(cc1S(=O)(=O)C(C)CC(=O)NC1CCC(C)CC1)OCC(=O)N2 (stereo unspecified) | inactive: -2.72% |
| O=C(Nc1ccccc1C(F)(F)F)c1cc2nc(-c3ccccc3)cc(-c3ccccc3)n2n1 | inactive: -0.624% |
| CCc1ccc2c(c1)NC(c1ccc(F)cc1)=NC(c1ccncc1)=N2 | inactive: 0.307% |
| CCc1ccc(OC(=O)CSc2nnc(-c3ccc(OC)c(OC)c3)o2)cc1 | inactive: 0.335% |
| Cc1c2cnn(CC(=O)NC(C)C)c(=O)c2c(C)n1Cc1cccc(Cl)c1 | inactive: 0.128% |
| COc1ccc(/C=C/c2nc(C#N)c(NCc3ccc(C)cc3)o2)cc1OC | inactive: -8.38% |
| CCNC(=O)c1ccc2c(c1)sc1nc(-c3cccc(OC)c3)cn12 | inactive: -0.0328% |
| CC(Oc1ccccc1)C(=O)Nc1cccc(-c2cn3cccnc3n2)c1 (stereo unspecified) | inactive: 3.11% |
| O=C(NCCc1ccccc1)c1ccc2c(c1)N(Cc1ccc(F)cc1Cl)C(=O)CS2 | inactive: 0.342% |
| Cc1ccc(NC(=O)N2CCC3(CC2)Oc2ccccc2C(=O)N3Cc2ccc(F)cc2)cc1 | inactive: 1.18% |
| CCOc1ccc(NC(=O)CC2C(=O)N(c3ccccc3)C(=O)N2CCc2sccc2C)cc1 (stereo unspecified) | inactive: -16.4% |
| CCOc1nc(-c2ccccc2)ccc1-c1noc(-c2ccc(C)cc2)n1 | inactive: -28.8% |
| COc1ccc(S(=O)(=O)c2c(C(=O)c3ccc(C)c(C)c3)cnc3ccc(C)cc23)cc1 | inactive: -9.31% |
| Fc1ccc(-c2cc(-c3nc(-c4ccc(Cl)cc4)no3)[nH]n2)cc1 | inactive: 10.6% |
| Cc1c(C(=O)OC2CCC(C)CC2)[nH]c2c1C(=O)CC(c1ccc(N(C)C)cc1)C2 (stereo unspecified) | inactive: 9.45% |
| CC(C)(C)OC(=O)N1CCC(c2c(C(=O)N3CCN(C(=O)c4ccco4)CC3)cnn2-c2cccc(Cl)c2)CC1 | inactive: 5.77% |
| CC(=O)c1ccc(NC(=O)c2nc(-c3ccc(Cl)cc3)n3c2CCCCC3)cc1 | inactive: -10.8% |
| COc1cccc(OCC(=O)NC2CC(=O)N(c3cccc(OC)c3)C2)c1 (stereo unspecified) | inactive: 0.382% |

| SMILES | activity change, negative = inhibition |
| --- | --- |
| COC(=O)c1cc(NC(=O)CC2C(=O)OCCN2Cc2ccccc2)cc(C(=O)OC)c1 (stereo unspecified) | inactive: 2.47% |
| Cc1cccc(OCC(=O)N2CCC(c3nc4ccccc4o3)CC2)c1C | inactive: 0.391% |
| Cc1cc(C)c2c(=O)cc(C(=O)Nc3sc4c(c3C(=O)NCc3ccco3)CCCC4)oc2c1 | inactive: -1.21% |
| CS(=O)(=O)CC[C@@H](C(=O)NCCc1ccccc1)N1Cc2ccccc2C1=O | inactive: -11.3% |
| CN(c1nnc(NC(=O)Nc2ccccc2C(F)(F)F)s1)C1CCCCC1 | inactive: -0.763% |
| COc1ccc(NC(=O)Cn2c(=O)c3ccccc3n3nncc23)cc1Cl | inactive: 2.05% |
| COCc1cc(C)nc2c1C(=O)NC(c1ccc(NC(C)=O)cc1)N2Cc1ccccc1 (stereo unspecified) | inactive: 1.39% |
| Cc1ccc(NC(=O)CN2C(=O)c3cccnc3Sc3ccccc32)c(Br)c1 | inactive: -10.9% |
| Cc1ccc(Nc2c3c(nc4nncn24)CCC3)c(C)c1 | inactive: -4.73% |
| COc1ccc2c(c1)-c1nc(NC(=O)c3cccc(Br)c3)sc1CC2 | inactive: -2.19% |
| Cc1ccc(NC(=O)Cn2nnc(-c3ccccc3)n2)c(C)c1 | inactive: -0.0302% |
| O=C(C1COc2ccccc2O1)N(Cc1cccnc1)c1nc2c(F)cccc2s1 (stereo unspecified) | inactive: -4.75% |
| CCOC(=O)c1c(NC(=O)c2cc(-c3cccc(Cl)c3)on2)sc(C(C)=O)c1C | inactive: -0.159% |
| CC1CCN(S(=O)(=O)c2cc(C(=O)N3CCN(c4cccc(Cl)c4)CC3)n(C)c2)CC1 | inactive: -13.6% |
| COc1ccc(N(CC(=O)N2CCc3ccccc3C2)S(=O)(=O)c2ccccc2)cc1 | inactive: 3.36% |
| CCOC(=O)c1nnn(C(CC)C(=O)Nc2ccc(F)cc2)c1C(=O)OCC (stereo unspecified) | inactive: -26.7% |
| COc1ccccc1C1C(C(=O)N2CCCCC2)=C(C)Nc2nc3ccccc3n21 (stereo unspecified) | inactive: -1% |
| CCOc1ccc(S(=O)(=O)c2cn(CC)c3ccc(F)cc3c2=O)cc1 | inactive: 0.751% |
| CSc1ccc(CCNC(=O)Cn2c(C)c3cnn(-c4ccccc4)c(=O)c3c2C)cc1 | inactive: 1.03% |
